Experimental data: PubChem BioAssay AID1461 (National Center for Advancing Translational Sciences (NCATS), 2008)
About 2,300 (1%) of roughly 220,000 compounds were called active. Inconclusive means that the source gave no clear call. Such entries were picked first, then a sample of the others. Calls come from the whole dose curve; as a rule, active = well fitted inhibition curve with a large enough effect; inconclusive = small, poorly fitted or top-dose-only effect, or effect the other way; inactive = no such curve, though single readings can be large or run the other way. Potencies of inconclusive entries are left out as doubtful fits.
% is set by controls: 0 for no effect and ±100 for the full control effect; potency is the fitted concentration of half-maximal effect; tags give direction and shape of the fitted curve.
Note: nearly all actives have a fitted effect of over 50% in size.

What follows are molecules tested against Neuropeptide S receptor (Homo sapiens) (UniProt Q6W5P4) (assay: qHTS Assay for Antagonists of the Neuropeptide S Receptor: cAMP Signal Transduction). Settings: CHO-NPSR cells, cAMP TR-FRET, antagonist mode; activity change, negative = inhibition: at 38.3 µM (top of the series) unless noted.
Sequence of UniProt Q6W5P4 (Q6W5P4 whole entry, looked up): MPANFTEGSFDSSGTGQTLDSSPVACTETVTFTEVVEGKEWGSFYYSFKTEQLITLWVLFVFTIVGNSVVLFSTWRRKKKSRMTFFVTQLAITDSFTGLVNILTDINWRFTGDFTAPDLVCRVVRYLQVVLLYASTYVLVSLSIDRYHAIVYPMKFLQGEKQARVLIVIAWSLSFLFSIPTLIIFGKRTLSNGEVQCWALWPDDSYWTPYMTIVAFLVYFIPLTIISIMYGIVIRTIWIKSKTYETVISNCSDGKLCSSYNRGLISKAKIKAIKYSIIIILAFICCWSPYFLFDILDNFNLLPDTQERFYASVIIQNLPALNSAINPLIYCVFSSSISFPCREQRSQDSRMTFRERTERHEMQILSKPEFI
For Cc1ccc(CN(Cc2cccnc2)C(=S)Nc2cc(Cl)ccc2C)cc1, the Potency was inconclusive [inhibitor, single point].
In the case of Cc1ccc(-c2nnc(-c3ccccc3)c(-c3ccccc3)n2)cc1, the “activity change, negative = inhibition” value is reported as inactive: -33.3%.
With CCCCOC(=O)NS(=O)(=O)c1sc(CC(C)C)cc1-c1ccc(Cn2c(CC)nc3c(C)cc(C)nc32)cc1 the Potency was active: 12.6 µM.
For CCCCN(Cc1ccccc1)S(=O)(=O)c1cc(Br)cc2c1N(C(C)=O)C(C)C2 (stereo not given), the Potency was inconclusive [inhibitor, single point].
In the case of CCN1CCN(Cc2c(O)ccc3c2O/C(=C\C=C\c2ccccc2)C3=O)CC1, the Potency is reported as active: 3.98 µM.
CC1=Nc2ccccc2N=C(NC(=O)CSc2nnnn2-c2ccccc2)C1c1ccccc1 (stereo not given) was tested, and the Potency was inconclusive [inhibitor, partial curve].
For CS(=O)(=O)N1CCN(c2nc3ccccc3s2)CC1, the Potency was inconclusive [inhibitor, full curve, poor fit].
For Cc1nn(-c2ccccc2)c(Cl)c1/C=C1\SC(=S)NC1=O, the Potency was active: 10 µM.
O=C(NC1CCN(C(=O)N2c3ccccc3Sc3ccccc32)CC1)c1ccccc1F was tested, and the Potency was inconclusive [inhibitor, partial curve].
COc1ccc(OCCn2c(C)c(/C=N/n3cnnc3)c3ccccc32)cc1 was tested, and the Potency was inconclusive [activator, full curve].
For CCOC(=O)c1sc(=NC(=O)c2ccccc2)n(C)c1C, the Potency was inconclusive [inhibitor, single point].
Cc1ccc2c(c1)N(S(=O)(=O)c1ccc(F)cc1)C(C(C)(C)C)CO2 (stereo not given) was tested, and the Potency was inconclusive [inhibitor, single point].
In the case of O=C(Cn1cc(C(F)(F)F)ccc1=O)N/N=C/c1ccccc1O, the “activity change, negative = inhibition” value is reported as inactive: 13.6%.
For Cc1cc(O)c(-c2cc(C(=O)Nc3cccnc3)[nH]n2)cc1C, the “activity change, negative = inhibition” value was inactive: -10.8%.
In the case of COc1ccccc1/C=C/C(=O)N1CCOCC1, the “activity change, negative = inhibition” value is reported as inactive: -1.23% [at 46.1 µM].
Cc1cccc(-n2ncc3c(NCCN4CCOCC4)ncnc32)c1 was tested, and the Potency was inconclusive [activator, partial curve].
In the case of CSc1ccc(CN2CCC(CO)(Cc3ccc(Cl)cc3)CC2)cc1, the Potency is reported as inconclusive [activator, single point].
In the case of COc1ccc(C(C)=O)c2c(O)cccc12, the “activity change, negative = inhibition” value is reported as inactive: 2.64% [at 46.1 µM].
In the case of CC1CCCC(n2c(=S)[nH]c3ccccc3c2=O)C1C (stereo not given), the Potency is reported as inconclusive [inhibitor, single point].
Cc1ccc(S(=O)(=O)CCSc2nccn2C)cc1 was tested, and the “activity change, negative = inhibition” value was inactive: -16.8%.
In the case of COc1ccc(N(C(=O)Cn2cnc3ccccc32)C(C(=O)NC2CCCCC2)c2ccccc2)cc1 (stereo not given), the “activity change, negative = inhibition” value is reported as inactive: -28.3% [at 46.1 µM].
In the case of C/C(=N\NC(=O)c1cc2ccccc2cc1O)c1cc2ccccc2o1, the activity change, negative = inhibition is reported as inactive: 25.9% [at 7.67 µM].
In the case of Cc1ccc2c(c1)C1CN(C)CCC1N2C(=O)c1cccc(S(=O)(=O)N2CC(C)CC(C)C2)c1 (stereo not given), the Potency is reported as inconclusive [inhibitor, single point].
In the case of CN(C(=O)COC(=O)c1ccccc1Nc1ccccc1)C1CCS(=O)(=O)C1 (stereo not given), the Potency is reported as inconclusive [inhibitor, full curve, poor fit].
In the case of Cc1cc(C)cc(NC(=O)c2nnn(Cc3cc(C)ccc3C)c2N)c1, the Potency is reported as inconclusive [inhibitor, partial curve, poor fit].
In the case of CC(/C=N/N1CCN(c2ccc(C)cc2)CC1)=C\c1ccccc1, the “activity change, negative = inhibition” value is reported as inactive: 16.4%.
In the case of O=C(Nc1ccccc1C(=O)Nc1nnc(C(F)(F)F)s1)c1ccccc1, the Potency is reported as inconclusive [activator, full curve].
In the case of O=C(Nc1ccc(F)cc1)C(Cc1ccccc1)n1cccc1 (stereo not given), the “activity change, negative = inhibition” value is reported as inactive: -23.1%.
With O=C(COc1nc2ccccc2nc1N1CCOCC1)N1CCc2ccccc21 the Potency was inconclusive [activator, single point].
With CCCCn1c(/C=N/Nc2nc3ccccc3[nH]2)nc2ccccc21 the Potency was active: 12.6 µM.
For Cn1c(=O)c2c(nc(SCC(=O)NCc3ccc4c(c3)OCO4)n2Cc2ccc(Cl)cc2)n(C)c1=O, the “activity change, negative = inhibition” value was inactive: -27.9% [at 46.1 µM].
In the case of CC(=O)c1cccc(NC(=O)C23CC4CC(C2)CC(n2cncn2)(C4)C3)c1, the “activity change, negative = inhibition” value is reported as inactive: 7.07%.
For O=C(NCCN1CCN(c2ccccc2)CC1)c1ccc(NC(=O)C2CCCO2)cc1 (stereo not given), the “activity change, negative = inhibition” value was inactive: -57.2% [at 46.1 µM].
With CC(C)N1C/C(=C/c2ccsc2)C(=O)/C(=C/c2ccsc2)C1 the Potency was inconclusive [inhibitor, single point].
O=C(c1ccco1)N(c1ccccn1)c1ccccn1 was tested, and the Potency was inconclusive [inhibitor, single point].
In the case of Cc1nn(-c2nc3ccccc3n2Cc2ccccc2)c2c1C(=O)CC(C)(C)C2, the Potency is reported as inconclusive [inhibitor, full curve].
COc1ccc(Br)cc1/C=N/NC(=O)CN1CCN(Cc2ccccc2)CC1 was tested, and the “activity change, negative = inhibition” value was inactive: 5.51%.
For CC1=Nc2ccccc2N=C(NC(=O)c2ccccc2)C1c1ccccc1 (stereo not given), the Potency was inconclusive [inhibitor, full curve, poor fit].
With Cc1ccc(Cl)cc1N1CCN(C(=O)CSc2nnc3n2C(C)(C)Cc2ccccc2-3)CC1 the Potency was inconclusive [inhibitor, single point].
With CCOC(=O)C1=C(CSc2nc(C)ccc2C#N)OC(N)=C(C#N)C1c1cccc(OC)c1OC (stereo not given) the Potency was inconclusive [inhibitor, partial curve].
With Cc1ccc(-c2c[n+](Cc3ccc(Cl)cc3)c3n2CCC3)cc1 the Potency was inconclusive [inhibitor, single point].
In the case of [2H]c1c([2H])c([2H])c(C(=O)c2sc(N3CCCCCC3)nc2-c2ccccc2)c([2H])c1[2H], the “activity change, negative = inhibition” value is reported as inactive: -25.1% [at 46.1 µM].
For Cc1nn2c(NCCCN(C)C)c3c(nc2c1-c1ccccc1)CCCC3, the Potency was inconclusive [activator, single point].
With Cc1ccc(-c2cn(S(=O)(=O)c3cccc4nsnc34)nc2N)cc1 the Potency was inconclusive [inhibitor, single point].
In the case of O=C(CSc1nnc(Cc2cccs2)n1-c1ccc(Cl)cc1)NCc1ccc2c(c1)OCO2, the Potency is reported as inconclusive [inhibitor, single point].
